Results: PubChem BioAssay AID1508623 (National Center for Advancing Translational Sciences (NCATS), 2021)
Several values for one entry are separate records, joined by “and”; a condition that tells them apart may be missing. Equal values may be shown once. Out of some 48,000 compounds screened, about 450 (0.94%) were called active. The shares of active, inactive and inconclusive entries below differ from those in the screen. Calls come from the whole dose curve; as a rule, active = well fitted inhibition curve with a large enough effect; inconclusive = small, poorly fitted or top-dose-only effect; inactive = no such curve, though single readings can be large or run the other way. Potencies of inconclusive entries are doubtful fits and often do not repeat.

Test: Primary qHTS for Identification of Small Molecule Inhibitors of Huntingtin Promoter Activity; note: nearly all actives have a fitted effect of over 50% in size
Conditions: HEK293 HTT promoter firefly luciferase reporter (activity 0% = vehicle and -100% = no light), 24 h; series mostly up to 57.5 µM
Summary of the method: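 HEK293 Fluc reporter, 2,500 cells/well, 24 h pre-culture; cpds up to 57.5 uM final, 24 h 37 degrees C; Dual-Glo, 10 min RT; normalized vehicle = 0%, zero RLU = -100%.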
Potency is the fitted concentration of half-maximal effect; tags give direction and shape of the fitted curve.

Question: With `Cc1cccc(N(CC(=O)Nc2cccc(Cl)c2C)S(C)(=O)=O)c1C` as the compound, how does the Potency read?
Answer: inactive

Question: With `CCCCCNS(=O)(=O)c1ccc(N2CCCCS2(=O)=O)cc1` as the compound, how does the Potency read?
Answer: inconclusive: 15.8 µM [inhibitor, partial curve, poor fit]

Question: Which Potency does the source give for `O=C(NC1CC1)c1ccc(Cn2c(SCc3ccccc3F)nc3cccnc32)cc1` here?
Answer: inconclusive: 39.8 µM [inhibitor, single point]

Question: Which Potency does the source give for `CCOc1ccc(NCc2cccn2-c2nnc(N3CCC(C(=O)NCc4ccc(C)cc4)CC3)s2)cc1` here?
Answer: active: 14.1 µM

Question: Which Potency does the source give for `Cc1c(-c2ccc(O)cc2)n(Cc2ccc(OCCN3CCCCCC3)cc2)c2ccc(O)cc12` here?
Answer: inactive and inconclusive: 39.8 µM [inhibitor, single point]

Question: With `CCc1nnc(NC(=O)CSc2nccn2Cc2ccc(F)cc2)s1` as the compound, how does the Potency read?
Answer: inactive

Question: For `COc1ccc(N2CCN(CC(O)COc3ccc(C(C)C)c(C)c3)CC2)cc1` (stereo not given), which Potency is on record?
Answer: inactive

Question: For `C=Cc1c(C)c2cc3nc(cc4[nH]c(cc5nc(cc1[nH]2)C(C)=C5CCC(=O)O)c(CCC(=O)OC)c4C)[C@@]1(C)C3=CC=C(C(=O)OC)[C@H]1C(=O)OC`, which Potency is on record?
Answer: inconclusive: 0.769 µM [inhibitor, full curve]

Question: Which Potency does the source give for `Cc1ccc(Nc2cc(-c3ccccc3)nc(C)n2)cc1` here?
Answer: inactive

Question: Which Potency does the source give for `CC(C=CC1=C(C)CCCC1(C)C)=CC=CC(C)=CC(=O)O` here?
Answer: inconclusive: 19.3 µM [inhibitor, partial curve]

Question: With `Cc1noc(C)c1S(=O)(=O)NCCc1csc2nc(-c3ccc(F)cc3)nn12` as the compound, how does the Potency read?
Answer: inconclusive: 31.6 µM [inhibitor, single point]

Question: With `CCc1cccc(NC(=O)c2ccc3c(=O)n4nc(Nc5ccccc5OC)sc4nc3c2)c1` as the compound, how does the Potency read?
Answer: inconclusive: 7.08 µM [inhibitor, partial curve, poor fit]

Question: Which Potency does the source give for `OC1(c2ccccc2)CCNCC1` here?
Answer: inactive

Question: With `COc1cccc(N2CCN(c3ncc4c(n3)CCN(Cc3ccc(Br)cc3)C4)CC2)c1` as the compound, how does the Potency read?
Answer: inconclusive: 12.6 µM [inhibitor, partial curve, poor fit]

Question: With `Cc1ccc(C)c(NC(=O)Cn2c(=O)oc3cc(S(=O)(=O)NCc4ccccc4)ccc32)c1` as the compound, how does the Potency read?
Answer: inconclusive: 15.8 µM [inhibitor, partial curve, poor fit]

Question: For `NC[C@H](O)c1ccc(O)c(O)c1`, which Potency is on record?
Answer: inconclusive: 30.6 µM [inhibitor, partial curve, poor fit]

Question: Which Potency does the source give for `Cc1ccccc1C(=O)Nc1sc2c(c1C(=O)N1CCC(C)CC1)CCCC2` here?
Answer: inconclusive: 28.2 µM [inhibitor, partial curve, poor fit]

Question: For `O=C(Nc1ccc(Oc2ccccc2)cc1)C1CCN(S(=O)(=O)c2ccccc2)CC1`, which Potency is on record?
Answer: inconclusive: 11.2 µM [inhibitor, partial curve]

Question: For `CC(=O)c1cc(-c2ccc(F)cc2)n(CCC(=O)NCc2ccc(C)cc2)c1C`, which Potency is on record?
Answer: inconclusive: 44.7 µM [inhibitor, partial curve, poor fit]

Question: For `Clc1ccc(CN2CCc3nc(Nc4ccc5c(c4)OCCO5)ncc3C2)cc1`, which Potency is on record?
Answer: inconclusive: 39.8 µM [inhibitor, single point]

Question: With `Cc1ccccc1C(=O)NCc1ccc2c(c1)CCN2C(=O)c1ccccc1` as the compound, how does the Potency read?
Answer: inconclusive: 39.8 µM [inhibitor, single point]

Question: For `CCCCCCOc1ccccc1C(N)=O`, which Potency is on record?
Answer: inactive

Question: Which Potency does the source give for `O=C(c1ccc(F)cc1)N1c2ncnn2C2(CCCCC2)[C@@H]2CCCC[C@@H]21` here?
Answer: inconclusive: 22.4 µM [inhibitor, partial curve, poor fit]

Question: Which Potency does the source give for `Cc1cccc(NS(=O)(=O)c2nnc(NC(=O)C3CCCCC3)s2)c1` here?
Answer: inconclusive: 28.2 µM [inhibitor, single point]

Question: For `CCOC(=O)c1ccc(NC(=O)c2ccc3c(c2)CCN3S(=O)(=O)c2ccc(Cl)cc2)cc1`, which Potency is on record?
Answer: inconclusive: 10 µM [inhibitor, partial curve]

Question: With `CC(CNC(=O)c1ccc(Cn2c(SCc3ccccc3)nc3cccnc32)cc1)c1ccccc1` (stereo not given) as the compound, how does the Potency read?
Answer: inconclusive: 39.8 µM [inhibitor, single point]

Question: Which Potency does the source give for `COc1ccc2oc(=O)cc(CN3CCN(C(=O)c4ccccc4)CC3)c2c1` here?
Answer: inactive

Question: With `CC(C)(C)c1cc(C(C)(C)C)c(NC(=O)c2c[nH]c3ccccc3c2=O)cc1O` as the compound, how does the Potency read?
Answer: inactive

Question: With `CCCCOc1ccc(C(=O)Nc2ccc3c(c2)N(C(C)=O)CCC3)cc1` as the compound, how does the Potency read?
Answer: active: 4.47 µM

Question: With `CC(C)NC[C@@H](C(=O)N1CCN(c2ncnc3c2[C@H](C)C[C@H]3O)CC1)c1ccc(Cl)cc1` as the compound, how does the Potency read?
Answer: inconclusive: 1.22 µM [inhibitor, full curve]

Question: With `CCOc1cc(CNc2ccc(O)cc2)cc(Cl)c1OCc1ccccc1` as the compound, how does the Potency read?
Answer: inactive

Question: Which Potency does the source give for `Cn1nc(-c2ccccc2F)c2cc(C(=O)N3CCN(c4ccccc4F)CC3)sc21` here?
Answer: inconclusive: 25.1 µM [inhibitor, partial curve, poor fit]

Question: For `CCc1ccccc1NC(=O)c1ccc(F)c(S(=O)(=O)N2CCN(c3ccccc3OC)CC2)c1`, which Potency is on record?
Answer: inconclusive: 17.8 µM [inhibitor, partial curve, poor fit]

Question: With `Cc1ccc(CNC(=O)Cn2c(-c3cccs3)cc3cc(Cl)ccc32)cc1` as the compound, how does the Potency read?
Answer: inconclusive: 8.91 µM [inhibitor, full curve, poor fit]

Question: With `O=C(Nc1nc2c(F)cccc2s1)c1ccc2c(c1)OCCO2` as the compound, how does the Potency read?
Answer: inconclusive: 22.4 µM [inhibitor, single point]

Question: With `Cc1ccc(C(=O)Nc2ccc(S(=O)(=O)N(Cc3ccccc3)c3ccccc3)cc2)cc1` as the compound, how does the Potency read?
Answer: inconclusive: 12.6 µM [inhibitor, partial curve, poor fit]

Question: Which Potency does the source give for `CCOC(=O)c1c(C)oc2ccc(N(C(C)=O)S(=O)(=O)c3c(C)cc(C)cc3C)cc12` here?
Answer: inactive

Question: Which Potency does the source give for `Cc1cc(F)ccc1S(=O)(=O)Nc1cc2c(C(=O)O)c(C)oc2c2ccccc12` here?
Answer: inactive

Question: With `N#Cc1ccc(NC(=O)C2Cc3ccccc3CN2S(=O)(=O)c2ccc(F)cc2)cc1` (stereo not given) as the compound, how does the Potency read?
Answer: inconclusive: 31.6 µM [inhibitor, partial curve, poor fit]

Question: For `O=C(Cc1ccc(NC(=O)N2CCSc3ncccc32)cc1)NCc1cccc(Cl)c1`, which Potency is on record?
Answer: inconclusive: 15.8 µM [inhibitor, partial curve]

Question: For `CCOc1ccccc1CNC(=O)c1oc2c(c1C)-c1nn(Cc3cccc(Cl)c3)cc1CC2`, which Potency is on record?
Answer: inconclusive: 39.8 µM [inhibitor, single point]

Question: For `Cc1ccc(NC(=O)C2CCCN2S(=O)(=O)c2cccc3cccnc23)c(C)c1` (stereo not given), which Potency is on record?
Answer: inconclusive: 39.8 µM [inhibitor, single point]

Question: For `COc1ccc(Cl)cc1C(=O)NCCS(=O)(=O)N1CCN(c2ccccc2OC)CC1`, which Potency is on record?
Answer: inconclusive: 39.8 µM [inhibitor, single point]

Question: With `O=C(CN1C(=O)C2(SCC(=O)N2c2ccc(F)c(F)c2)c2ccccc21)Nc1cccc(Cl)c1` (stereo not given) as the compound, how does the Potency read?
Answer: inconclusive: 20 µM [inhibitor, single point]

Question: Which Potency does the source give for `COc1c(C)cc(NS(=O)(=O)c2ccc3c(c2)OCCO3)cc1C` here?
Answer: inconclusive: 28.2 µM [inhibitor, partial curve, poor fit]

Question: With `COc1ccc(CNC(=O)C2CCN(C(=O)N3CCOc4ccc(Cl)cc43)CC2)cc1` as the compound, how does the Potency read?
Answer: inconclusive: 31.6 µM [inhibitor, partial curve, poor fit]

Question: With `CCOC(=O)c1cnc2ccc(OC)cc2c1Nc1cccc(C(C)=O)c1` as the compound, how does the Potency read?
Answer: inconclusive: 22.4 µM [inhibitor, partial curve, poor fit]

Question: For `Cc1cccc(NC(=O)C2CCN(S(=O)(=O)c3c(C)noc3/C=C/c3ccco3)CC2)c1`, which Potency is on record?
Answer: inconclusive: 25.1 µM [inhibitor, partial curve, poor fit]

Question: For `Cc1nc2ccc(S(=O)(=O)N(CC(=O)Nc3ccc(F)cc3)Cc3ccccc3)cc2s1`, which Potency is on record?
Answer: inconclusive: 28.2 µM [inhibitor, single point]

Question: With `COc1ccc(CCNc2ncnc3c2nnn3C)cc1` as the compound, how does the Potency read?
Answer: inconclusive: 25.1 µM [inhibitor, partial curve, poor fit]

Question: With `CCOc1ccc(-n2nc3ccc(NC(=O)Cc4ccccc4)cc3n2)cc1` as the compound, how does the Potency read?
Answer: inconclusive: 39.8 µM [inhibitor, single point]

Question: With `Cc1cc(-c2ccc(C)c(S(=O)(=O)N3CCOc4ccc(Cl)cc43)c2)on1` as the compound, how does the Potency read?
Answer: active: 28.2 µM

Question: For `O=C(Nc1ccc(OC(F)(F)F)cc1)c1noc2c1CCCC2`, which Potency is on record?
Answer: inactive

Question: With `O=C(NCCCN1CCN(c2cccc(Cl)c2)CC1)c1cnn(-c2ccc(F)cc2)c1-n1cccc1` as the compound, how does the Potency read?
Answer: inconclusive: 39.8 µM [inhibitor, single point]

Question: With `CCN1C(=O)c2ccccc2Sc2ccc(NC(=O)Nc3cccc([N+](=O)[O-])c3C)cc21` as the compound, how does the Potency read?
Answer: inconclusive: 25.1 µM [inhibitor, partial curve, poor fit]

Question: With `CCC1=C(c2ccc(C)cc2)S(=O)(=O)N=C1N1CCC(C(=O)NCc2ccc(N(C)C)cc2)CC1` as the compound, how does the Potency read?
Answer: inconclusive: 25.1 µM [inhibitor, partial curve]

Question: For `Cc1ccc(N2CC(NC(=O)c3cccc(Cl)c3)CC2=O)cc1C` (stereo not given), which Potency is on record?
Answer: inconclusive: 39.8 µM [inhibitor, single point]

Question: With `COc1ccc(N(C(=O)c2ccc(C(C)(C)C)cc2)S(=O)(=O)c2ccc(Cl)cc2)cc1` as the compound, how does the Potency read?
Answer: inconclusive: 14.1 µM [inhibitor, partial curve]

Question: Which Potency does the source give for `CCc1ccccc1Nc1sc(C(=O)c2cccc(OC)c2)c(N)c1S(=O)(=O)c1ccccc1` here?
Answer: inconclusive: 22.4 µM [inhibitor, single point]

Question: Which Potency does the source give for `CCCSc1ncc(Cl)c(C(=O)N(Cc2ccc(Cl)cc2)Cc2ccco2)n1` here?
Answer: inconclusive: 31.6 µM [inhibitor, single point]
